According to PubChem BioAssay AID894 (National Center for Advancing Translational Sciences (NCATS), 2007):
Where “and” joins values, the source holds several entries; their conditions need not be identical. Equal entries are not always repeated. Out of some 150,000 compounds screened, about 6,500 (4.3%) were called active. The shares of active, inactive and inconclusive entries below differ from those in the screen. Calls come from the whole dose curve; as a rule, active = well fitted inhibition curve with a large enough effect (not every such curve was filed as active); inconclusive = small, poorly fitted or top-dose-only effect, or another doubt; inactive = no such curve, though single readings can be large or run the other way. A potency beside an inconclusive call is a rough fit, not a confirmed value.

Molecular target: 15-hydroxyprostaglandin dehydrogenase [NAD(+)] (Homo sapiens) (UniProt P15428)
Chain of UniProt P15428 (P15428 whole entry, looked up): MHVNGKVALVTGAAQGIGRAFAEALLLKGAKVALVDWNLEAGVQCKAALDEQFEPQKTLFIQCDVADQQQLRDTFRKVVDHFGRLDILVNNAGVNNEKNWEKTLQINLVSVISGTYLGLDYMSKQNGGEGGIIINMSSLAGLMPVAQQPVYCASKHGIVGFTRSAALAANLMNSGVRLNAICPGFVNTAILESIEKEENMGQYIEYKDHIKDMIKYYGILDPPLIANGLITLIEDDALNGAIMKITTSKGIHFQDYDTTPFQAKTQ
Experiment: qHTS Assay for Inhibitors of HPGD (15-Hydroxyprostaglandin Dehydrogenase)
Settings: purified HPGD, NADH fluorescence kinetic, PGE2 substrate; activity change, negative = inhibition: active compounds read low
Procedure, shortened: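 NADH formation kinetics: reaction with 30 uM PGE2 and 1 mM NAD+ (final), 20 nM enzyme, Tris-HCl pH 8 with Tween 20, after 15 min compound preincubation at room temperature. Fluorescence change, last versus first of five reads.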
% is set by controls: 0 for no effect and ±100 for the full control effect; potency is the fitted concentration of half-maximal effect; tags give direction and shape of the fitted curve.

SMILES | Potency | activity change, negative = inhibition
COc1cccc(-c2cc3nc4c(c(N5CCC6(CC5)OCCO6)n3n2)CCCC4)c1 | inconclusive: 15.8 µM [inhibitor, partial curve] | 
Cc1ccc(N(C)C(=O)N2CCN(S(=O)(=O)c3ccc4ccccc4c3)CC2)cc1 |  | inactive: -4.09%
N#CC1=C(N)Oc2c(ccc3ccccc23)C1c1ccsc1 (stereo unspecified) |  | inactive: -9.86%
N#Cc1cccc(NC(=O)CN2NS(=O)(=O)c3ccccc3C2=O)c1 | active: 15.8 µM | 
Cc1ccc(C2C3=C(CCCC3=O)Nc3nc(SCC(=O)NCc4ccco4)[nH]c(=O)c32)cc1 (stereo unspecified) | inconclusive: 31.6 µM [inhibitor, partial curve] | 
Cc1cc2n(n1)C(c1ccc3c(c1)OCO3)Nc1ccccc1-2 (stereo unspecified) | inconclusive: 39.8 µM [inhibitor, partial curve] | 
COc1ccc(-c2occ(C(=O)O)c2C(=O)O)cc1 | inconclusive: 31.6 µM [inhibitor, partial curve] | 
Cc1ccccc1CS(=O)(=O)CCC(=O)N1CCN(c2ccc(N3CCOCC3)nn2)CC1 | inconclusive: 31.6 µM [inhibitor, partial curve] | 
CC(=O)c1ccc(NC(=O)c2cc(Cl)sc2Cl)cc1 |  | inactive: -14.7%
CCCc1cc2c(n1Cc1cc(F)cc(F)c1)C(C)C1CN(C(=O)c3ccccc3)C(C)(C(=O)OC)C21 (stereo unspecified) |  | inactive: -12.1%
CC1(C)CC(=O)C2=C(C1)N(c1ccc(F)cc1)C(N)=C(C#N)C2c1cccs1 (stereo unspecified) |  | inactive: -5.34%
O=c1oc(Nc2ccc(F)cc2)nc2ccccc12 | inconclusive: 39.8 µM [inhibitor, single point] | 
O=c1cnc2cnc(N3CCNCC3)nc2n1CCc1ccccc1 | inconclusive: 31.6 µM [inhibitor, partial curve] | 
Cc1cccc(CNc2nc(-c3ccc(C(=O)N(C)C)cc3)nc3ccccc23)c1 | active: 25.1 µM | 
CCOC(=O)c1sc(-c2ccc(F)cc2)cc1NC(=O)Nc1ccccc1OC | inconclusive: 39.8 µM [inhibitor, single point] | 
O=C(COc1ccccc1)NCC(=O)N/N=C/c1ccco1 | inconclusive: 35.5 µM [inhibitor, partial curve, poor fit] | 
CCOc1cc(NC(=S)NC)c(OCC)cc1NC(=O)c1ccco1 | inconclusive: 35.5 µM [inhibitor, partial curve] | 
Cc1cc2nc(C)c(=O)n(C)c2cc1C | inconclusive: 12.6 µM [inhibitor, partial curve] | 
Cc1cc(C)n(-c2ccc(C(=O)C(C#N)c3nc4ccccc4n3C)cc2)n1 (stereo unspecified) | inconclusive: 35.5 µM [inhibitor, partial curve] | 
c1cnc2ccc(C(c3nnnn3C3CCCC3)N3CCN4CCCC4C3)cc2c1 (stereo unspecified) |  | inactive: -4.33%
CCC(Sc1nncn1C)C(=O)Nc1nnc(-c2ccc(Cl)cc2)s1 (stereo unspecified) | inconclusive: 20 µM [inhibitor, partial curve] | 
O=c1oc2cc(Oc3c([N+](=O)[O-])cc(C(F)(F)F)cc3[N+](=O)[O-])ccc2c2c1CCCC2 | inconclusive: 25.1 µM [inhibitor, partial curve] | 
CCOc1c(OC(C)=O)ccc(/C=C/c2ccc3cccc(OC)c3n2)c1[N+](=O)[O-] |  | inactive: -20.7%
Cc1ccc(C(=O)CSC2=C(C#N)C(c3ccco3)CC(=O)N2)c(C)c1 (stereo unspecified) | inconclusive: 4.47 µM [inhibitor, full curve] | 

SMILES | Potency | activity change, negative = inhibition
CC1(C)Cc2c(C#N)c(NCCN3CCOCC3)nc(-c3ccco3)c2CO1 | inconclusive: 15.8 µM [inhibitor, partial curve] | 
CC1CCN(CCCNC(=O)c2cc3c(=O)n(C)c4ccccc4c3n2C)CC1 | inconclusive: 25.1 µM [inhibitor, partial curve, poor fit] | 
Cn1ncc2cc(NC(=S)NC(=O)c3ccccc3)ccc21 | inconclusive: 31.6 µM [inhibitor, single point] | 
Cc1ccc(NCc2nnc(SCC(=O)Nc3ccccc3)n2CC2CCCO2)c(C)c1 (stereo unspecified) |  | inactive: -8.34%
COc1cccc(Nc2nc(-c3sc(NC(=O)c4ccccc4)nc3C)cs2)c1 | inconclusive: 28.2 µM [inhibitor, single point] | 
O=C(Nc1nnc(-c2ccncc2)o1)C1CCCCC1 | inconclusive: 39.8 µM [inhibitor, single point] | 
O=C1c2ccccc2NC2(CCCC2)N1O | active: 20 µM | 
CCCOC(=O)c1c(NC(=O)CCCn2nc([N+](=O)[O-])cc2C)sc(C(=O)OC)c1C |  | inactive: -6.45%
CCn1c(SCc2ccc(C)cc2)nnc1-c1cnccn1 |  | inactive: -15.3%
COc1ccc(/C=N/S(=O)(=O)CCc2ccccc2)c(OC)c1 | inconclusive: 28.2 µM [inhibitor, partial curve] | 
COc1ccccc1CCn1cnc2c3cc(C)ccc3n(C)c2c1=O | inconclusive: 28.2 µM [inhibitor, partial curve] | 
COC(=O)c1sc2ncccc2c1OCc1cccc(Cl)c1 | inconclusive: 28.2 µM [inhibitor, partial curve] | 
COc1ccc(-c2noc(CCC(=O)Nc3ccc(C)c(C)c3)n2)cc1 |  | inactive: -7.48%
Oc1cc(O)cc(/C=C/c2ccc(O)c(O)c2)c1 | inconclusive: 3.16 µM [inhibitor, full curve] and inconclusive: 28.2 µM [inhibitor, single point] | 
Cc1c(/C(O)=C2\C(=O)C(=O)N(CCCN(C)C)C2c2ccccc2)cnn1-c1ccccc1 (stereo unspecified) | active: 20 µM | 
COc1ccc(-c2csc(C)n2)cc1 |  | inactive: -3.95%
N#Cc1ccc(-c2ccco2)nc1SCc1ccccc1 | inconclusive: 25.1 µM [inhibitor, partial curve] | 
COc1ccc(-c2cc(=O)oc3cc(OCC(C)=O)ccc23)cc1 | active: 31.6 µM | 
O=C1N=C(N2CCOCC2)SC1=C1CCCCC1 |  | inactive: -28.5%
COc1ccc(N(C(C)C(=O)N/N=C/c2ccc(OC(C)C)cc2)S(C)(=O)=O)cc1 (stereo unspecified) |  | inactive: -29.5%
O=C(Nc1ccc(NC(=O)c2sc3ccccc3c2Cl)cc1)c1ccco1 | inconclusive: 14.1 µM [inhibitor, partial curve] | 
CC(=O)Nc1ccc(S(=O)(=O)c2c(N)n(CCN3CCOCC3)c3nc4ccccc4nc23)cc1 | inconclusive: 31.6 µM [inhibitor, partial curve] | 
COc1ccc(-c2ccc(-c3noc(C)n3)c(OC)n2)cc1 | inconclusive: 28.2 µM [inhibitor, partial curve] | 
CC(=O)N1CCN(c2nnnn2-c2ccccc2)CC1 |  | inactive: 2.6%

SMILES | Potency | activity change, negative = inhibition
C[C@@H](C[C@H](N)C(=O)O)C(=O)O |  | inactive: -0.289%
COc1ccc(OCCCC(=O)NCC(C)C)cc1 | active: 25.1 µM | 
CC(=O)N1CCC[C@@]2(CCN(C(c3ccccc3)c3ccccc3)C2)C1 |  | inactive: -8.92%
COC(=O)c1c(C#N)c(N)nc2c1CCCC2 | inconclusive: 15.8 µM [inhibitor, partial curve] | 
Cc1ccc(O)c(C=Nc2ccc3[nH]ncc3c2)c1 | inconclusive: 25.1 µM [inhibitor, partial curve] | 
O=C(COC(=O)CCS(=O)(=O)c1ccc(Cl)cc1)NCCc1ccccc1 |  | inactive: -1.71%
COc1ccc(C)cc1-n1c(N)c(C#N)c(C#N)c1-c1ccc(OC)c(OC)c1OC | inconclusive: 28.2 µM [inhibitor, partial curve] | 
CCn1nc(C(=O)Nc2ccc3nc(C)sc3c2)c2ccccc2c1=O | inconclusive: 39.8 µM [inhibitor, partial curve, poor fit] | 
COC(=O)c1ccc(CCc2cc(O)ccc2O)cc1 | active: 0.398 µM | 
O=C1CC(c2ccccc2)CC(O)=C1C=NCc1ccccc1 (stereo unspecified) |  | inactive: -3.76%
CCC(C)(C)n1nnnc1C(c1cc2cc3c(cc2[nH]c1=O)OCO3)N1CCN(C)CC1 (stereo unspecified) | inconclusive: 28.2 µM [inhibitor, partial curve] | 
O=C(NCC1CCCO1)C(c1cccs1)N(Cc1ccccc1)C(=O)c1ccc(-c2ccccc2)[nH]1 (stereo unspecified) | inconclusive: 31.6 µM [inhibitor, partial curve] | 
N#Cc1nc(-c2ccccc2)oc1NCC1CCCO1 (stereo unspecified) | inconclusive: 28.2 µM [inhibitor, partial curve] | 
Brc1c(CSc2nncn2-c2ccccc2)nc2ncccn12 | inconclusive: 31.6 µM [inhibitor, partial curve] | 
COc1ccc(CC2(C)OC(c3ccccc3)=NN2C(C)=O)cc1 (stereo unspecified) |  | inactive: -20.2%
CCN1C(=O)CC(N2CCN(c3ccc(Cl)cc3)CC2)C1=O (stereo unspecified) |  | inactive: -7.33%
O=C(Nc1nc(-c2cccs2)c(-c2cccs2)s1)C1CCCC1 | inconclusive: 39.8 µM [inhibitor, single point] | 
CCOC(=O)c1c(NC(=O)c2cccs2)sc2c1CCCC2 | inconclusive: 35.5 µM [inhibitor, single point] | 
Cc1ccc(C(=O)N2CC(C)OC(C)C2)c(Cl)c1 (stereo unspecified) | active: 15.8 µM | 
COc1cc(NC(=O)COC(=O)c2ccc(S(=O)(=O)N3CC(C)CC(C)C3)cc2)c(C)cc1[N+](=O)[O-] (stereo unspecified) | inconclusive: 39.8 µM [inhibitor, single point] | 
N#Cc1cccc(Cn2nnc(-c3ccccc3)n2)c1 |  | inactive: -15.3%
CC(C)Cc1cc(-c2ccco2)c(C#N)c(N)n1 | inconclusive: 3.55 µM [inhibitor, partial curve] | 
COc1ccc(N=C2C(=O)N3c4c(cccc42)C(C)=CC3(C)C)cc1 |  | inactive: -19.2%
